Test results from the antibiotic and cytotoxicity screens of Wong et al. (2023).
This is one part of the list.

Legend:
[1] = system: HSkMC (human skeletal muscle cells); test: cytotoxicity call (relative viability < 0.9); details: 10 µM
[2] = system: HepG2; test: cytotoxicity call (relative viability < 0.9); details: 10 µM
[3] = system: S. aureus RN4220; test: growth inhibition call (relative growth <= 0.2); details: 50 µM

Compound | cytotoxicity call [1] | cytotoxicity call [2] | growth inhibition call [3]
CN1CCN(C(=O)C[C@@H]2CC[C@H]3[C@@H](COC[C@@H](O)CN3C(=O)Nc3ccc4c(c3)OCO4)O2)CC1 | inactive | inactive | inactive
O=C(CCCCCCC(=O)Nc1ccc([C@H]2O[C@@H](CN3CCCCCCC3)C[C@H](c3ccccc3)O2)cc1)NO | inactive | inactive | inactive
CN1C(=O)c2cc(NS(=O)(=O)c3ccc(F)cc3)ccc2OC[C@H]2O[C@H](CC(=O)NCC(F)(F)F)CC[C@@H]21 | inactive | inactive | inactive
C[C@@H]1CN([C@@H](C)CO)C(=O)c2cccc(NC(=O)Nc3ccccc3)c2O[C@@H]1CN(C)Cc1ccc(Cl)c(Cl)c1 | inactive | inactive | inactive
N[C@@H](C(=O)O)c1ccc(C(=O)O)c(C(=O)O)c1 | inactive | inactive | inactive
COc1ccc(CN(C)C[C@@H]2OCCCC[C@@H](C)Oc3ccc(NS(=O)(=O)c4cccs4)cc3C(=O)N([C@@H](C)CO)C[C@H]2C)cc1 | inactive | inactive | inactive
C[C@@H]1CCCCO[C@H](CN(C)C(=O)Cc2ccccc2)[C@@H](C)CN([C@H](C)CO)C(=O)c2cc(NC(=O)NC3CCCCC3)ccc2O1 | inactive | inactive | inactive
COc1ccc(S(=O)(=O)Nc2ccc3c(c2)C(=O)N([C@@H](C)CO)C[C@@H](C)[C@@H](CN(C)Cc2ccc(Cl)c(Cl)c2)O3)cc1 | active | active | inactive
Cc1ccc(-c2cc(C(F)(F)F)nn2-c2ccc(S(N)(=O)=O)cc2)cc1 | inactive | active | inactive
C[C@@H]1CN([C@H](C)CO)C(=O)c2cc(NS(=O)(=O)c3cccs3)ccc2O[C@@H](C)CCCCO[C@H]1CN(C)Cc1ccccc1 | inactive | inactive | inactive
CCOC(=O)CNc1n[nH]c(=O)[nH]c1=O | inactive | inactive | inactive
C[C@@H]1CN([C@@H](C)CO)C(=O)c2cc(NS(=O)(=O)c3cn(C)cn3)ccc2O[C@H]1CN(C)S(=O)(=O)c1ccc(Cl)cc1 | inactive | inactive | inactive
C[C@@H]1CN([C@H](C)CO)C(=O)Cc2cc(NS(C)(=O)=O)ccc2O[C@@H]1CN(C)C(=O)Nc1ccc(F)cc1 | inactive | inactive | inactive
O=S(=O)(NCC[C@@H]1CC[C@H](NS(=O)(=O)c2cccc(Cl)c2)[C@@H](CO)O1)c1cccc(F)c1 | inactive | inactive | inactive
Cc1ccc(CNC(=S)NCCO)cc1 | inactive | inactive | inactive
COc1cc(-c2ccc(NN=C3C=Cc4c(S(=O)(=O)O)cc(S(=O)(=O)O)c(N)c4C3=O)c(OC)c2)ccc1NN=C1C=Cc2c(S(=O)(=O)O)cc(S(=O)(=O)O)c(N)c2C1=O | active | active | inactive
Cc1noc(C)c1S(=O)(=O)N(C)C[C@@H]1Oc2ccc(NC(=O)Nc3ccccc3)cc2CC(=O)N([C@@H](C)CO)C[C@H]1C | inactive | inactive | inactive
C[C@H]1CN([C@@H](C)CO)C(=O)Cc2cc(NS(C)(=O)=O)ccc2O[C@@H]1CN(C)S(=O)(=O)c1cn(C)cn1 | inactive | inactive | inactive
COc1ccc2c3c(n(c2c1)C)[C@@H](CO)N(C[C@]13CN(C1)C(=O)C)C(=O)CN1CCOCC1 | inactive | inactive | inactive
C[C@@H]1CN([C@H](C)CO)C(=O)Cc2cc(NC(=O)Nc3ccc(C(F)(F)F)cc3)ccc2O[C@H]1CN(C)Cc1ccccc1 | active | active | inactive
C[C@@H]1CN([C@H](C)CO)C(=O)c2cc(NC(=O)Nc3cccc4ccccc34)ccc2O[C@@H]1CN(C)S(=O)(=O)c1cccs1 | inactive | inactive | inactive
C[C@H](CO)N1C[C@H](C)[C@H](CN(C)C(=O)Nc2ccnc(N3CCOCC3)c2)OCc2cn(nn2)CCCC1=O | inactive | inactive | inactive
Cc1noc(C)c1NC(=O)N(C)C[C@H]1Oc2ccc(NC(=O)NC(C)C)cc2CC(=O)N([C@@H](C)CO)C[C@@H]1C | inactive | inactive | inactive
C[C@@H]1CN([C@H](C)CO)C(=O)c2cc(NC(=O)C3CCCCC3)ccc2O[C@H]1CN(C)Cc1ccc(Cl)c(Cl)c1 | inactive | inactive | inactive
C[C@@H]1CN([C@@H](C)CO)C(=O)c2cccc(NC(=O)Nc3ccc(C(F)(F)F)cc3)c2O[C@H]1CN(C)Cc1ccncc1 | inactive | inactive | inactive
C[C@@H]1COCCN1 | inactive | inactive | inactive
C[C@H](CO)N1C[C@H](C)[C@H](CN(C)Cc2ccc(C(F)(F)F)cc2)Oc2c(NS(C)(=O)=O)cccc2C1=O | inactive | inactive | inactive
COCC(=O)N1C[C@@H](C)[C@@H](OC)CN(C)C(=O)c2cc(NC(=O)c3ccc(F)cc3)ccc2OC[C@@H]1C | inactive | inactive | inactive
